# No constants are given. Whether binding was seen depends on the method and setting. Some binding calls cover weakened binding; strength is not graded here. Where a sequence is shown, tags or fusion partners need not be part of it.
# Amino acid sequences for entries named in this document (tags omitted). A change or cut given only in a name is not applied to a line headed by its entry. Chains listed by the source or under a name are the forms on record and can include a tag or linker. Residues count along the entry.
# GST-CD40_(216-277) (P25942, residues 216-277): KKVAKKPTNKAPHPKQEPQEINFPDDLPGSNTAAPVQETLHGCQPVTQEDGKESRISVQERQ
# GST-CD40_(216-277) A233xAxxA (P25942, form named): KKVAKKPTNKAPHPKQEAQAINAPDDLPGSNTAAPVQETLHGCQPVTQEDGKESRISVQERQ
# UniProt O00463, residues 363-557: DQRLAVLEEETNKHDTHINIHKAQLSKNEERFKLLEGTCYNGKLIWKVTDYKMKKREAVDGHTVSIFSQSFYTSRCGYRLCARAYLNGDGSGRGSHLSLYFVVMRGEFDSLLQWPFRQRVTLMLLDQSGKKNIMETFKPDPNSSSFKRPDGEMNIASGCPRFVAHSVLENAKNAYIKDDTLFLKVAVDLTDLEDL
# T1: GST-RANK_(314-355) (human) (UniProt Q9Y6Q6)
# T1 sequence: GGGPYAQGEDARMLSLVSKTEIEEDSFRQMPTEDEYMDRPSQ
# T2: His-TRAF6_(310-522) (human) (UniProt Q9Y4K3)
# T2 sequence: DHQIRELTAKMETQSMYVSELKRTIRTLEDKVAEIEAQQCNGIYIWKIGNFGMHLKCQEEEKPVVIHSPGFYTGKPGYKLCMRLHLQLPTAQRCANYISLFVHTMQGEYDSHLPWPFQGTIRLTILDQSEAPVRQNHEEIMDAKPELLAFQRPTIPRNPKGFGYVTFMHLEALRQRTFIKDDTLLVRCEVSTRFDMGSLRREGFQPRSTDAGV
# Columns and labels:
# [1] = target: GST-LMP1_(181-386) A204xAxA (Epstein-Barr virus) (UniProt P03230); assay: pull-down; both purified
# [2] = target: GST-LMP1_(181-386) (Epstein-Barr virus) (UniProt P03230); assay: pull-down; both purified
# [3] = target: GST-LMP1_(181-386) Y384G (Epstein-Barr virus) (UniProt P03230); assay: pull-down; both purified
# [4] = target: LMP1-derived CTAR2 peptide 10 (371-386, P379xQxS to AxAxA) (Epstein-Barr virus) (UniProt P03230); assay: peptide or protein array; peptides spot-synthesised on cellulose membranes in duplicate, incubated with 10 µg per mL purified His-TRAF6 or His-TRAF2 in PBST with 5% milk powder for 4 h at RT; detection by TRAF-specific antibodies; both purified
# [5] = target: LMP1-derived CTAR2 peptide 12 (357-386, P379xQxS to AxAxA) (Epstein-Barr virus) (UniProt P03230); assay: as above
# [6] = target: LMP1-derived CTAR2 peptide 9 (371-386, Y384 and Y385 to AA) (Epstein-Barr virus) (UniProt P03230); assay: as above
# [7] = target: GST-CD40_(216-277) A233xAxxA (human) (UniProt P25942); assay: AlphaScreen or HTRF; AlphaScreen PPI assay: His-TRAF and GST-LMP1, GST-CD40 or GST-RANK in PBS with 0.5% BSA and 0.1% Tween-20, 1 h at RT; standard 300 nM His-TRAF and 100 nM GST protein if not indicated otherwise; for KD His-TRAF6 at different concentrations, fit one site-specific binding with hill slope; both …
# [8] = target: GST-LMP1_(181-386) A379xAxxA (Epstein-Barr virus) (UniProt P03230); assay: as above
# [9] = target: GST-LMP1_(181-386) V380A (Epstein-Barr virus) (UniProt P03230); assay: as above
# [10] = target: GST-CD40_(216-277) (human) (UniProt P25942); assay: as above
# [11] = target: GST-LMP1_(181-386) (Epstein-Barr virus) (UniProt P03230); assay: as above
# [12] = target: T1, GST-RANK_(314-355) (human); assay: as above
# [13] = target: T2, His-TRAF6_(310-522) (human); assay: AlphaScreen or HTRF; AlphaScreen PPI assay in competition: GST-LMP1 or GST-CD40 with His-TRAF6 (dose-response of TRAF6 inhibitor or control peptide, 4-parameter fit) or GST-LMP1 with His-TRAF2 (30 µM peptide); both purified
molecule,measurement,setting,value
His-TRAF5_(363-557) (from UniProt O00463 363-557) (domain or fragment),binding,[1],no binding
"His-TRAF3_(375-568) (domain or fragment, UniProt Q13114 375-568) ARNTGLLESQLSRHDQMLSVHDIRLADMDLRFQVLETASYNGVLIWKIRDYKRRKQEAVMGKTLSLYSQPFYTGYFGYKMCARVYLNGDGMGKGTHLSLFFVIMRGEYDALLPWPFKQKVTLMLMDQGSSRRHLGDAFKPDPNSSSFKKPTGEMNIASGCPVFVAQTVLENGTYIKDDTIFIKVIVDTSDLPDP",binding,[2],binds
"His-TRAF1_(226-416) (domain or fragment, source: E. coli BL21 Codon Plus RIPL, purified (Ni-NTA)) RERILSLEQRVVELQQTLAQKDQALGKLEQSLRLMEEASFDGTFLWKITNVTRRCHESACGRTVSLFSPAFYTAKYGYKLCLRLYLNGDGTGKRTHLSLFIVIMRGEYDALLPWPFRNKVTFMLLDQNNREHAIDAFRPDLSSASFQRPQSETNVASGCPLFFPLSKLQSPKHAYVKDDTMFLKCIVETST",binding,[1],no binding
"His-TRAF6_(310-522) (domain or fragment, also called His-T6; recombinant TRAF6 wild-type; source: E. coli BL21 Codon Plus RIPL, purified (Ni-NTA)) DHQIRELTAKMETQSMYVSELKRTIRTLEDKVAEIEAQQCNGIYIWKIGNFGMHLKCQEEEKPVVIHSPGFYTGKPGYKLCMRLHLQLPTAQRCANYISLFVHTMQGEYDSHLPWPFQGTIRLTILDQSEAPVRQNHEEIMDAKPELLAFQRPTIPRNPKGFGYVTFMHLEALRQRTFIKDDTLLVRCEVSTRFDMGSLRREGFQPRSTDAGV",binding,[3],no binding
same,binding,[4],no binding (tested: 10 µg per mL)
same,binding,[5],no binding (tested: 10 µg per mL)
same,binding,[6],no binding (tested: 10 µg per mL)
same,binding,[7],no binding
same,binding,[8],no binding
same,binding,[9],no binding
"His-TRAF6_(310-522) F471A (domain or fragment, UniProt Q9Y4K3 310-522) DHQIRELTAKMETQSMYVSELKRTIRTLEDKVAEIEAQQCNGIYIWKIGNFGMHLKCQEEEKPVVIHSPGFYTGKPGYKLCMRLHLQLPTAQRCANYISLFVHTMQGEYDSHLPWPFQGTIRLTILDQSEAPVRQNHEEIMDAKPELLAFQRPTIPRNPKGAGYVTFMHLEALRQRTFIKDDTLLVRCEVSTRFDMGSLRREGFQPRSTDAGV",binding,[10],no binding
same,binding,[11],no binding
"His-TRAF6_(310-522) Y473A (domain or fragment, UniProt Q9Y4K3 310-522) DHQIRELTAKMETQSMYVSELKRTIRTLEDKVAEIEAQQCNGIYIWKIGNFGMHLKCQEEEKPVVIHSPGFYTGKPGYKLCMRLHLQLPTAQRCANYISLFVHTMQGEYDSHLPWPFQGTIRLTILDQSEAPVRQNHEEIMDAKPELLAFQRPTIPRNPKGFGAVTFMHLEALRQRTFIKDDTLLVRCEVSTRFDMGSLRREGFQPRSTDAGV",binding,[10],no binding
same,binding,[11],no binding
"His-TRAF6_(310-522) R392A (domain or fragment, UniProt Q9Y4K3 310-522) DHQIRELTAKMETQSMYVSELKRTIRTLEDKVAEIEAQQCNGIYIWKIGNFGMHLKCQEEEKPVVIHSPGFYTGKPGYKLCMALHLQLPTAQRCANYISLFVHTMQGEYDSHLPWPFQGTIRLTILDQSEAPVRQNHEEIMDAKPELLAFQRPTIPRNPKGFGYVTFMHLEALRQRTFIKDDTLLVRCEVSTRFDMGSLRREGFQPRSTDAGV",binding,[11],no binding
same,binding,[12],no binding
DRQIKIWFQNRRMKWKK [Antennapedia leader peptide …],binding,[13],no binding

# Source: paper PMC10776578, “Epstein-Barr virus-driven B cell lymphoma mediated by a direct LMP1-TRAF6 complex” (Nature Communications, 2024)
